Data: patent WO2008131575A2 (dated 2008)

Biological target: T1, human ALK epitope peptide (amino acids 391-406 of the ALK protein) (human)
T1 construct: the underscore is a remnant of the underlining; In the yeast screen it was fused to LexA; in the ELISA it is called the Alk LBD peptide; also called Alk LBD peptide; AIk LBD
T1 peptide: GRIGRPDNPFRVALEY
Assay: ELISA with Alk LBD peptide

B1: scFv ESBA521 (scFv)
scFv: QSVLTQPPSVSAAPGQKVTISCSGSTSNIGDNYVSWYQQLPGTAPQLLIYDNTKRPSGIPDRFSGSKSGTSATLGITGLQTGDEADYYCATWDNDKWGVVFGGGTKLEVLGGGGGSGGGGSGGGGSSGGGS[about 100 residues not spelt out]DAWLDVLSDGFDYWGQGTLVTVSS
notes: also called ESBA512; scFv-107
How did the Kd turn out when B1 was run?
Its Kd is roughly 7 nM.
